56 sequences from the supplement of paper PMC11417369 can be followed below.

Some of the results follow.

The assay has as its system PF3D7_0420300 AP2 domain 1 (GST-tagged). Briefly: gcPBM binding intensity (ln(normalized median fluorescence intensity)); higher = stronger DNA binding. The gist of the method: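 For binding intensity, the highest Masliner-normalised natural-log median intensity across replicate spots of either probe orientation was taken. Protein bound to the array was stained with Alexa488 anti-GST antibody and scanned at 488 nm. The protein, GST-tagged P. falciparum DNA-binding domains from E. coli at about 25 μg on average, had been applied for 1 h to an Agilent 4 × 180k array of primer-extended double-stranded 36-bp intergenic genomic probes and negative controls.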
“GTGTTTGAAAATAAAGCATGCAAATATATTTGAAAT [TGCATGCA_site386]”: the “gcPBM binding intensity (ln)” value was found to be 9.22.

For “TTTTTTTTGTTCATTGTGCACATTGCTTGCATGGAA [GTGCAC_site9693]”, the “gcPBM binding intensity (ln)” value came out at 9.05.

For the sequence “AAAATAATAAATAAATGTACATATATATATATATAT [XGTACX_site3078]”, the “gcPBM binding intensity (ln)” value was 9.1.

On to “ATAAGATTATACAATTGTACGTTGTTCAAGATAAGG [XGTACX_site191]”, for which the “gcPBM binding intensity (ln)” value was 9.27.

Consider “AACTAATTCATGTTATATTAGATAAAAAAAAAAAAA [TGCATGCA_negctrl_site340]”, for which the “gcPBM binding intensity (ln)” value is 9.01.

For “AAATATATTATATGTACACACAAAATTAAGGGATAT [CACACA_site1375]”, the “gcPBM binding intensity (ln)” value was 9.89.

In the case of “ATATTTTTTAATTTTACACACCATATAAAATAATTC [CACACA_site7339]”, the “gcPBM binding intensity (ln)” value came to 9.37.

“ATCAATACTTTTTTGGGTACATAAATATATATATAT [XGTACX_site8436]”: the “gcPBM binding intensity (ln)” value was 9.28.

“TGTCATGATACATACACACACATACCCATACCCATA [CACACA_site5211]”: the “gcPBM binding intensity (ln)” value came out at 9.88.

With “AAATAAAGCATGTGCTGTACAAACGAAATATTTAAG [XGTACX_site3146]”, the “gcPBM binding intensity (ln)” value was 9.62.

For “TTTATGTGTATTAAGTGTACACATATAGTGTATTTT [XGTACX_site999]”, the “gcPBM binding intensity (ln)” value was 9.23.

For “ATATATAAGGAAAAAAGTACTTATATTTTTTTTTTG [XGTACX_site1909]”, the “gcPBM binding intensity (ln)” value came to 9.

As for “AACAAATGTTAAATGTTTAAGGAGAAAATAAAGACA [CACACA_negctrl_site1163]”, the “gcPBM binding intensity (ln)” value worked out at 9.34.

Consider “GAAAACATAAAAATATGTACTTAAAATATATTTTGT [XGTACX_site868]”, for which the “gcPBM binding intensity (ln)” value stood at 9.17.

Regarding “AAAACGAAACATCTGTGTATAAGTCTATATTATTAT [XGTACX_negctrl_site301]”, the “gcPBM binding intensity (ln)” value was 9.38.

For the sequence “GCTTCTTAATATCATACACACATAGATATATTTATA [CACACA_site5676]”, the “gcPBM binding intensity (ln)” value was 9.69.

On to “GGAGACTTTGTATTGGGTACGTATTTCAATGCATGT [XGTACX_site1596]”, for which the “gcPBM binding intensity (ln)” value was 9.19.

“CATACATACATACATACACACACATATATATATATA [CACACA_site8593]”: the “gcPBM binding intensity (ln)” value is 9.63.

On to “AAACCTTTACATCGTTTGCACTATATTGATATGTGT [GTGCAC_site9686]”, for which the “gcPBM binding intensity (ln)” value was 9.46.

Consider “CTTCCTATATTTTACTGTACTTTTTTTTTTTTTTTT [XGTACX_site4016]”, for which the “gcPBM binding intensity (ln)” value came to 9.43.

As for “TTTTTTAACAAAAATAAAACATAACTGAATTAAAAG [GTGCAC_negctrl_site244]”, the “gcPBM binding intensity (ln)” value is 9.07.

For “ACGAATTAAATTTGCTGTACCAAAAAGAAAACAATA [XGTACX_site5511]”, the “gcPBM binding intensity (ln)” value was determined as 9.24.

In the case of “TTTTTTTTTTTTCATTGTACTCTTAAAAATTCAACT [XGTACX_site3154]”, the “gcPBM binding intensity (ln)” value is 8.88.

As for “TAAAATGTACAGGACGCACACACATATATATATATA [CACACA_site3673]”, the “gcPBM binding intensity (ln)” value was 9.67.

For the sequence “AACAACAACTAATATGCACACATTTAAAAACAAAAT [CACACA_site2440]”, the “gcPBM binding intensity (ln)” value came out at 9.78.

“TATTTTTTTTTTTTTTTACACACTATAGGGAAAAAA [CACACA_site8583]”: the “gcPBM binding intensity (ln)” value is 9.06.

Consider “ATTAAAATTTAAAATACACACACATATATATAATAT [CACACA_site8612]”, for which the “gcPBM binding intensity (ln)” value is 9.94.

Take “TTATAATGAAATATATTCTTATTCTTTTTTTTTTTT [GTGCAC_negctrl_site384]”: the “gcPBM binding intensity (ln)” value is 8.91.

In the case of “TCATTTTAAAAAAATAGTACTTTAAGAAACTTTTAT [XGTACX_site602]”, the “gcPBM binding intensity (ln)” value came out at 8.63.

On to “TTTTTTTTTTTTTTTTTTTATGTATACATATTTATA [TGCATGCA_negctrl_site234]”, for which the “gcPBM binding intensity (ln)” value came out at 8.84.

For “GATATTCTATAAAAAAGTACAAATATTTTAAAAAAT [XGTACX_site2177]”, the “gcPBM binding intensity (ln)” value worked out at 9.09.

In the case of “AGCATTAATTATTTCACACATATATATATATATATA [CACACA_site4889]”, the “gcPBM binding intensity (ln)” value turned out to be 9.4.

As to “TAAATCCTTTACAACACACACACAAAAAAAAAAAAA [CACACA_site643]”, the “gcPBM binding intensity (ln)” value amounted to 9.83.

For the sequence “TGTTTTTATTTATTCTGTACTGAAGAGAGTTATATA [XGTACX_site8859]”, the “gcPBM binding intensity (ln)” value turned out to be 9.1.

As for “TTTAAATACAGACATACACACATACACCCACATATA [CACACA_site8078]”, the “gcPBM binding intensity (ln)” value was 9.81.

As for “TAAGAAATAAATAGTACACACATAGACACAGACACA [CACACA_site4934]”, the “gcPBM binding intensity (ln)” value is 9.96.

For the sequence “ATATAAATTTTTTATGAACACACAAATACAGACACT [CACACA_site8848]”, the “gcPBM binding intensity (ln)” value came out at 9.69.

Take “GTATATGAGAAAAAAAGTACATGCACAAAATGTATA [XGTACX_site6441]”: the “gcPBM binding intensity (ln)” value turned out to be 9.34.

As for “ATAATTAAAAAAAATTGTACATATAAATAGAAGATT [XGTACX_site230]”, the “gcPBM binding intensity (ln)” value was determined as 9.39.

Turning to “AGATTAAAATAATATAAACACACATATACTTTTTTC [CACACA_site8085]”, the “gcPBM binding intensity (ln)” value was determined as 9.49.

With “AAAAAAAAAAGAATAGCACACACACCGATATAAATA [CACACA_site8111]”, the “gcPBM binding intensity (ln)” value is 10.1.

For “TAGGTATGCTCTCAATGTACATAAAATAATTTTACT [XGTACX_site6556]”, the “gcPBM binding intensity (ln)” value stood at 9.15.

“ATCAGTGATTAGGTTATATATAAAAATGAACTAATA [GTGCAC_negctrl_site647]”: the “gcPBM binding intensity (ln)” value worked out at 9.18.

Regarding “ATATTCATGTTGATATGTACTTATTCTATATTGAAT [XGTACX_site8347]”, the “gcPBM binding intensity (ln)” value was found to be 9.28.

Regarding “TATATATATATATATATACACACTTGTGCAGAATAT [CACACA_site2216]”, the “gcPBM binding intensity (ln)” value came out at 9.39.

For the sequence “ATATTTATATATAGTAGTACTTTCAATAATTTAAAT [XGTACX_site7276]”, the “gcPBM binding intensity (ln)” value is 9.02.

For the sequence “AATACAAGAACTGACACACATACATACTACATTTTA [CACACA_site2829]”, the “gcPBM binding intensity (ln)” value turned out to be 9.75.

As to TCTTAAAATATATAGGTGCAAAAAAAAAAAAAAAAA, the “gcPBM binding intensity (ln)” value stood at 8.65.

On to “AAAAAATTAAAAATACGTACATATATACATATATAT [XGTACX_site4621]”, for which the “gcPBM binding intensity (ln)” value amounted to 9.31.

On to “TATGATATTTATATGCGTACTGAAGTATGCCTATTT [XGTACX_site6133]”, for which the “gcPBM binding intensity (ln)” value is 9.41.

Take “AAAGAAAGAAGACACACACACATATATAAATATCAA [CACACA_site7715]”: the “gcPBM binding intensity (ln)” value was found to be 10.1.

Regarding “AGTTTTTATAAAAATAGTACATATTTATTAATCTGT [XGTACX_site5881]”, the “gcPBM binding intensity (ln)” value amounted to 9.23.

For the sequence “TGCAGTCTGGAGAAACGTACACAGTATCTGGTAACC [XGTACX_site2543]”, the “gcPBM binding intensity (ln)” value was found to be 9.21.

Take “TTTTGTGCTTAAAAAAGTACAAAATATAAAAAAAAT [XGTACX_site7876]”: the “gcPBM binding intensity (ln)” value was 9.06.

As for “CCCACAGACGGACACACACACACACCGACACATATA [CACACA_site4356]”, the “gcPBM binding intensity (ln)” value was found to be 10.2.

As for “AAAATTGAACCTGACAAGGTATTTTATTATTTATTA [TGCATGCA_negctrl_site181]”, the “gcPBM binding intensity (ln)” value was determined as 9.04.
